# Out of some 110,000 compounds screened, about 40 (0.04%) were called active. The inconclusive results got no clear call from the source; some entries with a clear call stand among them for comparison. The call rests on the fitted dose curve; in most records, active means well fitted curve in the direction sought with a large enough effect in the signal ratio (not every such curve was filed as active); inconclusive means small, poorly fitted or top-dose-only effect, or a change in a side signal; inactive means flat fitted curve, though single readings scatter; the % refers to the signal ratio. A potency beside an inconclusive call is a rough fit, not a confirmed value.
# Assay: IkB Signaling
# Conditions: ABC-DLBCL IkBa-CBG/CBR dual luciferase ratio (green luciferase fused to IkBa over red control in OCI-Ly3 lymphoma cells), 4 h; IkBa stabilization activation: at 57.1 µM (top of the series), scaled: untreated 0%, proteasome inhibitor 100% unless noted
# In short: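 Curves were fitted separately to fusion (green), unfused (red) and ratio luminescence, then classed by r2, magnitude and activity. Cells: OCI-Ly3, 4 h compound plus doxycycline at 37C; 10 uM MG-132 defined full response.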
# Potency means the concentration at half of the fitted maximal effect.
SMILES,IkBa stabilization activation,Potency
Cc1cc(NS(=O)(=O)c2cn(C)c(C)n2)ccc1Br,inactive: -1.47%,–
COc1cccc(CNC(=O)CCc2c(C)nc3c4c(C)cc(C)nc4nn3c2C)c1,inactive: 2.18%,–
CCCCC(C=O)CC (stereo not drawn),inactive: -1.5%,–
Cc1ccccc1OCC(=O)Nc1nnc(SCc2cc(=O)n3cc(Cl)ccc3n2)s1,inconclusive: 1.3% [signal inhibitor],–
COc1cccc(-c2nc(NCc3cccs3)c3ccccc3n2)c1,"inactive: 3.78% [at 11.4 µM, scaled: untreated 0%, proteasome inhibitor 100%]",–
Cc1ccc(-n2nc(C)c(C(=O)NCCCN3CCN(c4cccc(Cl)c4)CC3)c2-n2cccc2)cc1,inconclusive: -3.95% [signal inhibitor],–
CCOc1ccccc1CNC(=O)c1cc2occc2n1C,inactive: 1.82%,–
Cc1ccc(NC(=O)c2cccc(NC(=O)N3CCSc4ncccc43)c2)cc1F,inconclusive: 2.25% [signal inhibitor],–
Cc1ccc(NC(=O)CCCCCC2NC(=O)NC2C)cc1 (stereo not drawn),inactive: -0.559%,–
COc1ccc(-c2cc(C(F)(F)F)nc(SCC(=O)Nc3ccc(O)cc3)n2)cc1OC,inactive: -5.73%,–
CCCNc1ncnc2c1c(-c1ccccc1)cn2-c1ccccc1,inconclusive: -2.64% [signal inhibitor],–
C[C@@]12CCC(=O)C=C1CC[C@H]1[C@@H]2[C@@H](O)C[C@]2(C)[C@@H]1CC[C@@]2(O)C(=O)CO,"inconclusive: 8.93% [signal activator] [at 11.4 µM, scaled: untreated 0%, proteasome inhibitor 100%]",–
COc1cccc(C(=O)CSc2nnc(-c3cc(OC)c(OC)c(OC)c3)o2)c1,inactive: 0.963%,–
Cc1coc2c(C)c3oc(=O)c(CCC(=O)N4CCCCC4)c(C)c3cc12,inconclusive: -1.35% [signal inhibitor],–
O=C(Cn1ccc2cc(S(=O)(=O)N3CCCCCC3)ccc21)NCc1cccc(Cl)c1,inconclusive: 0.262% [signal inhibitor],–
O=C(Cc1coc2ccc3ccccc3c12)N1CCN(c2ncccn2)CC1,inconclusive: 0.921% [signal inhibitor],–
Cc1cc(O)cc(O)c1-c1onc(C(F)(F)F)c1-c1cscn1,–,"inconclusive: 20 µM [signal inhibitor, partial curve]"
COCCn1c(C)cc(O)c(C(c2ccccc2Cl)N2CCCCC2)c1=O (stereo not drawn),inconclusive: 1.47% [signal inhibitor],–
CCCN1CCN(CCCNC(=O)c2cc3c(s2)-c2ccccc2OC3)CC1,inconclusive: 0.672% [signal inhibitor],–
N#Cc1ccccc1OCC(=O)N1CCN(c2ccccc2)CC1,inconclusive: 3.56% [signal inhibitor],–
N=C(C[C@@H](O)COc1ccccc1-c1ccccc1)N1CCCCC1,inconclusive: 0.124% [signal inhibitor],–
CCCCCc1cc(O)c2c(C)cc(=O)oc2c1,inactive: -1.67%,–
Cc1nc2c(c(C)c1CCC(=O)Nc1ccc(F)cc1)c(=O)n(C)c(=O)n2C,inconclusive: 3.36% [signal inhibitor],–
COc1ccccc1CCNC(=O)C(=O)NCC(c1cccnc1)N1CCN(c2ccccc2)CC1 (stereo not drawn),inactive: -0.265%,–

SMILES,IkBa stabilization activation,Potency
CCc1cccc(-n2nnc(S(=O)(=O)c3ccc(OC)cc3)c2C)c1,inconclusive: 4.82% [signal inhibitor],–
COc1ccc(NC(=O)Cn2nnc(-c3nc(-c4ccncc4)no3)c2N)cc1OC,inactive: -1.4%,–
CCOC(=O)c1c(C)n(C)c2ccc(OCC(O)Cn3nc(C)c(Br)c3C)cc12 (stereo not drawn),inconclusive: 2.24% [signal inhibitor],–
N#C/C(=C\c1cccs1)Sc1nc2ccccc2s1,inconclusive: 2.58% [signal inhibitor],–
Cn1cc(S(=O)(=O)N2CCCCCC2)cc1C(=O)N1CCN(c2ccccc2F)CC1,inactive: -0.6%,–
Cc1ccc(N(CC(O)Cn2c3ccccc3c3ccccc32)S(=O)(=O)c2ccc(F)cc2)cc1 (stereo not drawn),inconclusive: 17.5% [signal inhibitor],–
O=C(CN1CCc2ccccc2C1)N1CCN(S(=O)(=O)c2ccccc2)CC1,inactive: 3.62%,–
Cc1[nH]n(-c2ccccc2)c(=O)c1/C=N/c1ccccn1,inactive: 3.17%,–
Cc1ccc2nc3sc(C(=O)N4CCOCC4)c(N)c3cc2c1,inconclusive: 17.3% [signal inhibitor],–
O=C(Cn1c(=O)oc2cc(S(=O)(=O)N3CCCCCC3)ccc21)NC1CCCCC1,inactive: 4.98%,–
COc1ccc2c(Sc3ccc(C)cc3)c(C(=O)NCC(C)c3ccccc3)[nH]c2c1 (stereo not drawn),inconclusive: 4.7% [signal inhibitor],–
COc1ccccc1-c1nnc(C2CCN(S(=O)(=O)c3ccc(CC(C)C)cc3)CC2)o1,inactive: -1.62%,–
CCOC(=O)N1CCN(CCC(=O)c2ccc(Cl)cc2)CC1,inconclusive: -2.33% [signal inhibitor],–
CS(=O)(=O)N1CCCC(C(=O)NCc2ccc(F)cc2Cl)C1 (stereo not drawn),inactive: -0.649%,–
COc1cccc(-c2nc(SCc3cccc(Br)c3)n3[nH]c(=O)cc3n2)c1,inactive: 12.4%,–
Cn1cc(C(=O)O)c(=O)c2cc(S(=O)(=O)N3CCOCC3)ccc21,inactive: -0.819%,–
COc1ccccc1NC(=O)c1oc2ccccc2c1NC(=O)Cc1cccs1,inconclusive: 0.748% [signal inhibitor],–
COc1cc2c(cc1OC)C(c1ccc(Cl)cc1)N(c1cccc(C#N)c1)C(=O)C2 (stereo not drawn),inconclusive: 1.89% [signal inhibitor],–
CCOC(=O)c1cc(=O)n2[nH]c(-c3ccc(C)cc3)cc2n1,–,"inconclusive: 31.6 µM [signal inhibitor, partial curve]"
COc1ccc(Cn2nnnc2C(c2cccs2)N2CCOCC2)cc1 (stereo not drawn),inactive: 0.47%,–
Cc1c(O)ccc2c3c(c(=O)oc12)CCCC3,inactive: -0.801%,–
N#CC1=C(N)N(c2ccc(Br)cc2)C2=C(C(=O)CCC2)C1c1cccnc1 (stereo not drawn),–,"inconclusive: 3.16 µM [signal inhibitor, full curve]"
O=C(CSc1nnc(-c2cccs2)n1CC1CCCO1)c1cc2ccccc2o1 (stereo not drawn),inconclusive: 0.676% [signal inhibitor],–
CS(=O)(=O)N1CCCC(C(=O)NCc2ccccc2Cl)C1 (stereo not drawn),inactive: 0.0266%,–

# Reference: PubChem BioAssay AID445 (National Center for Advancing Translational Sciences (NCATS), 2006)
